# Source: the supplement of paper PMC8728848
# The other results are listed elsewhere or left out.
# B1: Epa1-NP-mutant-E227G (Candida glabrata), Q6VBJ0 (protein)
# chain: MILNPALFLNKCVCIYTTLILLLLTNGGYATSSNDISLASKDPTTFPLGCSPDITTPKKGLSMELYSYDFRKKGSYPCWDAAYLDPNYPRTGYKSHRLLAKVDGVTGNINFYYHATKGCTPQLGHLPASYNYPKPLTMTNFTMLLYGYFRPKVTGFHTFTISADDLLFVNFGAGNAFDCCRRDSSADHFGNYQAYAIWGSKTAKDELTVHLDAGVYYPIRLFYNNRGYDGALSFTFKTESNENTVSDFSEYFFSLDDTEEGCPGLISYDSSCASVKTSKIIGIDYHTETPNENLVPITKTIYHLGIPCTGTTTTPLCGSGFYDPLANKCVTINTSSTSSVTKTTSHTTSKEVSFHSSISSQKTLIPKSIPSPYGPIKSQSIPTEMETSSEISSSEYAFSDVISTPSHSPYTKKHSSLNSSSYTSTVIHSLTSYSISQGIFSTSLSEQNITSKSSTDKFSTATSMSNNITQSSIIISQFSTNNENYTTTSMHTSSDKISTETLNNSISTTTSILFSNSSTILKNNTTIISSDKDTHYHPVNPTIVCSTNKTEIICASITQPSISNSNNHWSSSVLKFNSTTVRSTLPSSAGSNETSINVPFSSSTESNTSTSSTSTSNSKMVRSTLPSSAGSNETSISVPFSSSTESNTSTSSTSTSNSKMVRSTLPSSAGSNETSINVPFSSSTESNTSTSSTSTSNSKTVRSTPFSSAGIIMTSLSQRNNKSASSYASSNSKCYNTADSCRKVHSTPSYLLTSSYTSEGVDYDCSLVSTKLKINDTNCVNNKHTTKSCLKTSVTTTIPTLEIKTARKSSSNTIGLHSYPTSSPNKSISSAPIIGYISSFKTIKTASPSYQTSDLTTITTITSLNNPGSTAVENTHESNDKSRKTSSNDISSKHSVIKETKDAVESSNKSHQTNTLKCSSIIIASSSHNSYESLGGTTLTLTLSKVYSPQNNDTLPFLEISEVNPSRTVLPESSKMMQYLTSTEERNKTARNTIATNIVSISTFHFEGEGNAIRMGYTQLLLMLIGIIVMNIGT
# Experiments:
# Assay in all cases: glycan array binding signal (z-score within array); higher = stronger binding
# Settings in all cases: glycan notation: IUPAC condensed, linker removed; mutation: E227G
# [1] = target: GlcNAc(a1-6)Gal(b1-4)GlcNAc
# Procedure, shortened: (§1)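 Columns mapping to the same glycan were averaged after glycan names were converted to IUPAC-condensed notation. The data come from 3228 arrays in the Consortium for Functional Glycomics database, limited to those with an available protein sequence. Binding is reported as a within-array Z-score averaged across arrays of one protein sequence and across linkers.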
# [2] = target: GlcNAc(b1-2)Gal(b1-3)GalNAc
# Procedure, shortened: as §1
# [3] = target: GlcNAc(b1-2)Man(a1-3)[GlcNAc(b1-2)Man(a1-6)]Man(b1-4)GlcNAc(b1-4)GlcNAc
# Procedure, shortened: as §1
# [4] = target: GlcNAc(b1-2)Man(a1-3)[GlcNAc(b1-2)Man(a1-6)]Man(b1-4)GlcNAc(b1-4)[Fuc(a1-6)]GlcNAc
# Procedure, shortened: as §1
# [5] = target: GlcNAc(b1-2)Man(a1-3)[GlcNAc(b1-4)][GlcNAc(b1-2)Man(a1-6)]Man(b1-4)GlcNAc(b1-4)GlcNAc
# Procedure, shortened: as §1
# [6] = target: GlcNAc(b1-2)Man(a1-3)[GlcNAc(b1-4)][GlcNAc(b1-2)Man(a1-6)]Man(b1-4)GlcNAc(b1-4)[Fuc(a1-6)]GlcNAc
# Procedure, shortened: as §1
# [7] = target: GlcNAc(b1-2)[GlcNAc(b1-4)]Man(a1-3)[GlcNAc(b1-2)Man(a1-6)]Man(b1-4)GlcNAc(b1-4)GlcNAc
# Procedure, shortened: as §1
# [8] = target: GlcNAc(b1-2)[GlcNAc(b1-4)]Man(a1-3)[GlcNAc(b1-4)][GlcNAc(b1-2)Man(a1-6)]Man(b1-4)GlcNAc(b1-4)GlcNAc
# Procedure, shortened: as §1
# [9] = target: GlcNAc(b1-2)[GlcNAc(b1-4)]Man(a1-3)[GlcNAc(b1-4)][GlcNAc(b1-2)[GlcNAc(b1-6)]Man(a1-6)]Man(b1-4)GlcNAc(b1-4)GlcNAc
# Procedure, shortened: as §1
# [10] = target: GlcNAc(b1-2)[GlcNAc(b1-4)]Man(a1-3)[GlcNAc(b1-4)][GlcNAc(b1-2)[GlcNAc(b1-6)]Man(a1-6)]Man(b1-4)GlcNAc(b1-4)[Fuc(a1-6)]GlcNAc
# Procedure, shortened: as §1
# [11] = target: GlcNAc(b1-2)[GlcNAc(b1-6)]Man(a1-6)[GlcNAc(b1-2)Man(a1-3)]Man(b1-4)GlcNAc(b1-4)GlcNAc
# Procedure, shortened: as §1
# [12] = target: GlcNAc(b1-2)[GlcNAc(b1-6)]Man(a1-6)[GlcNAc(b1-2)Man(a1-3)]Man(b1-4)GlcNAc(b1-4)[Fuc(a1-6)]GlcNAc
# Procedure, shortened: as §1
# [13] = target: GlcNAc(b1-2)[GlcNAc(b1-6)]Man(a1-6)[GlcNAc(b1-4)][GlcNAc(b1-2)Man(a1-3)]Man(b1-4)GlcNAc(b1-4)GlcNAc
# Procedure, shortened: as §1
# GlcNAc(b1-3)Fuc = target: GlcNAc(b1-3)Fuc
# Procedure, shortened: as §1
# GlcNAc(b1-3)Gal = target: GlcNAc(b1-3)Gal
# Procedure, shortened: as §1
# [14] = target: GlcNAc(b1-3)Gal(b1-3)GalNAc
# Procedure, shortened: as §1
# GlcNAc(b1-3)Gal(b1-4)Glc = target: GlcNAc(b1-3)Gal(b1-4)Glc
# Procedure, shortened: as §1
# [15] = target: GlcNAc(b1-3)Gal(b1-4)GlcNAc
# Procedure, shortened: as §1
# [16] = target: GlcNAc(b1-3)Gal(b1-4)GlcNAc(b1-2)Man(a1-3)[GlcNAc(b1-3)Gal(b1-4)GlcNAc(b1-2)Man(a1-6)]Man(b1-4)GlcNAc(b1-4)GlcNAc
# Procedure, shortened: as §1
# [17] = target: GlcNAc(b1-3)Gal(b1-4)GlcNAc(b1-2)Man(a1-3)[GlcNAc(b1-3)Gal(b1-4)GlcNAc(b1-2)Man(a1-6)]Man(b1-4)GlcNAc(b1-4)[Fuc(a1-6)]GlcNAc
# Procedure, shortened: as §1
# [18] = target: GlcNAc(b1-3)Gal(b1-4)GlcNAc(b1-2)[GlcNAc(b1-3)Gal(b1-4)GlcNAc(b1-6)]Man(a1-6)[GlcNAc(b1-3)Gal(b1-4)GlcNAc(b1-2)Man(a1-3)]Man(b1-4)GlcNAc(b1-4)GlcNAc
# Procedure, shortened: as §1
# [19] = target: GlcNAc(b1-3)Gal(b1-4)GlcNAc(b1-3)Gal(b1-4)GlcNAc
# Procedure, shortened: as §1
# [20] = target: GlcNAc(b1-3)Gal(b1-4)GlcNAc(b1-3)Gal(b1-4)GlcNAc(b1-2)Man(a1-3)[GlcNAc(b1-3)Gal(b1-4)GlcNAc(b1-3)Gal(b1-4)GlcNAc(b1-2)Man(a1-6)]Man(b1-4)GlcNAc(b1-4)GlcNAc
# Procedure, shortened: as §1
# [21] = target: GlcNAc(b1-3)Gal(b1-4)GlcNAc(b1-3)Gal(b1-4)GlcNAc(b1-2)Man(a1-3)[GlcNAc(b1-3)Gal(b1-4)GlcNAc(b1-3)Gal(b1-4)GlcNAc(b1-2)Man(a1-6)]Man(b1-4)GlcNAc(b1-4)[Fuc(a1-6)]GlcNAc
# Procedure, shortened: as §1
# [22] = target: GlcNAc(b1-3)Gal(b1-4)GlcNAc(b1-3)Gal(b1-4)GlcNAc(b1-2)[GlcNAc(b1-3)Gal(b1-4)GlcNAc(b1-3)Gal(b1-4)GlcNAc(b1-6)]Man(a1-6)[GlcNAc(b1-3)Gal(b1-4)GlcNAc(b1-3)Gal(b1-4)GlcNAc(b1-2)Man(a1-3)]Man(b1-4)GlcNAc(b1-4)[Fuc(a1-6)]GlcNAc
# Procedure, shortened: as §1
# [23] = target: GlcNAc(b1-3)Gal(b1-4)GlcNAc(b1-3)Gal(b1-4)GlcNAc(b1-3)Gal(b1-4)GlcNAc(b1-2)Man(a1-3)[GlcNAc(b1-3)Gal(b1-4)GlcNAc(b1-3)Gal(b1-4)GlcNAc(b1-3)Gal(b1-4)GlcNAc(b1-2)Man(a1-6)]Man(b1-4)GlcNAc(b1-4)GlcNAc
# Procedure, shortened: as §1
# [24] = target: GlcNAc(b1-3)Gal(b1-4)GlcNAc(b1-3)Gal(b1-4)GlcNAc(b1-3)Gal(b1-4)GlcNAc(b1-2)Man(a1-3)[GlcNAc(b1-3)Gal(b1-4)GlcNAc(b1-3)Gal(b1-4)GlcNAc(b1-3)Gal(b1-4)GlcNAc(b1-2)Man(a1-6)]Man(b1-4)GlcNAc(b1-4)[Fuc(a1-6)]GlcNAc
# Procedure, shortened: as §1
# [25] = target: GlcNAc(b1-3)Gal(b1-4)GlcNAc(b1-3)Gal(b1-4)GlcNAc(b1-3)Gal(b1-4)GlcNAc(b1-2)[GlcNAc(b1-3)Gal(b1-4)GlcNAc(b1-3)Gal(b1-4)GlcNAc(b1-3)Gal(b1-4)GlcNAc(b1-6)]Man(a1-6)[GlcNAc(b1-3)Gal(b1-4)GlcNAc(b1-3)Gal(b1-4)GlcNAc(b1-3)Gal(b1-4)GlcNAc(b1-2)Man(a1-3)]Man(b1-4)GlcNAc(b1-4)[Fuc(a1-6)]GlcNAc
# Procedure, shortened: as §1
# [26] = target: GlcNAc(b1-3)Gal(b1-4)GlcNAc(b1-3)Gal(b1-4)GlcNAc(b1-3)Gal(b1-4)GlcNAc(b1-3)Gal(b1-4)GlcNAc(b1-2)Man(a1-3)[GlcNAc(b1-3)Gal(b1-4)GlcNAc(b1-3)Gal(b1-4)GlcNAc(b1-3)Gal(b1-4)GlcNAc(b1-3)Gal(b1-4)GlcNAc(b1-2)Man(a1-6)]Man(b1-4)GlcNAc(b1-4)GlcNAc
# Procedure, shortened: as §1
# [27] = target: GlcNAc(b1-3)Gal(b1-4)GlcNAc(b1-3)Gal(b1-4)GlcNAc(b1-3)Gal(b1-4)GlcNAc(b1-3)Gal(b1-4)GlcNAc(b1-2)Man(a1-3)[GlcNAc(b1-3)Gal(b1-4)GlcNAc(b1-3)Gal(b1-4)GlcNAc(b1-3)Gal(b1-4)GlcNAc(b1-3)Gal(b1-4)GlcNAc(b1-2)Man(a1-6)]Man(b1-4)GlcNAc(b1-4)[Fuc(a1-6)]GlcNAc
# Procedure, shortened: as §1
binder,measurement,setting,value
B1,glycan array binding signal (z-score),[1],0.703
same,glycan array binding signal (z-score),[2],-0.312
same,glycan array binding signal (z-score),[3],-0.135
same,glycan array binding signal (z-score),[4],-0.037
same,glycan array binding signal (z-score),[5],-0.376
same,glycan array binding signal (z-score),[6],-0.217
same,glycan array binding signal (z-score),[7],-0.149
same,glycan array binding signal (z-score),[8],-0.114
same,glycan array binding signal (z-score),[9],0.01
same,glycan array binding signal (z-score),[10],-0.15
same,glycan array binding signal (z-score),[11],-0.302
same,glycan array binding signal (z-score),[12],0.01
same,glycan array binding signal (z-score),[13],-0.182
same,glycan array binding signal (z-score),GlcNAc(b1-3)Fuc,-0.132
same,glycan array binding signal (z-score),GlcNAc(b1-3)Gal,-0.233
same,glycan array binding signal (z-score),[14],-0.088
same,glycan array binding signal (z-score),GlcNAc(b1-3)Gal(b1-4)Glc,-0.256
same,glycan array binding signal (z-score),[15],-0.122
same,glycan array binding signal (z-score),[16],-0.121
same,glycan array binding signal (z-score),[17],0.074
same,glycan array binding signal (z-score),[18],-0.046
same,glycan array binding signal (z-score),[19],-0.21
same,glycan array binding signal (z-score),[20],-0.058
same,glycan array binding signal (z-score),[21],0.132
same,glycan array binding signal (z-score),[22],0.082
same,glycan array binding signal (z-score),[23],-0.169
same,glycan array binding signal (z-score),[24],-0.161
same,glycan array binding signal (z-score),[25],-0.022
same,glycan array binding signal (z-score),[26],-0.029
same,glycan array binding signal (z-score),[27],0.094
